Test results reported in the RNAGym collection of RNA variant scans (doi:10.1073/pnas.2313332121).
This sample is rich in variants without activity.

B1: TPR 5TU (parent)
chain: GGAUCUUCUCGAUCUAACAAAAAAGACAAAUCUGCCACAAAGCUUGAGAGCAUCUUCGGAUGCAGAGGCGGCAGCCUUCGGUGGCGCGAUAGCGCCAACGUUCUCAACUAUGACACGCAAAACGCGUGCUCCGUUGAAUGGAGUUUAUCAUG

Variants of: B1
Assay: polymerase ribozyme fitness, log enrichment relative to wild type (log ratio); higher = more active; in vitro selection for triplet polymerase activity
Outline: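 Streptavidin-bead capture of gel-excised extended constructs, followed by RT-PCR, closed a single triplicate in vitro selection round. That round began by annealing PCR-built, transcribed mutant libraries of each subunit of a heterodimeric triplet polymerase ribozyme with a biotinylated primer, the partner subunit and triplets, then incubating them frozen at −7 °C. After Illumina sequencing of inputs and outputs, genotypes needed ≥10 input reads and ≥1 read per output. Fitness is the base-2 logarithm of genotype enrichment over wild-type enrichment, using inverse-variance-weighted replicate averages.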

C93G A121U A142U and G88C C116U A150C cannot be ordered by “polymerase ribozyme fitness (log ratio)” value: no more than -4.2 for the first, no more than -4.2 for the second.

C87A G117C U134G and C93G C149G cannot be ordered by “polymerase ribozyme fitness (log ratio)” value: no more than -4.2 for the first, no more than -4.2 for the second.

C87G G140A and G88C G117C A138U G143C cannot be ordered by “polymerase ribozyme fitness (log ratio)” value: no more than -4.2 for the first, no more than -4.2 for the second.

G92U C103U G136U and C93G U146G are within 0.2 log units of each other in “polymerase ribozyme fitness (log ratio)” value: -3.43 for the first, -3.41 for the second.

G88A C125U G141U and A91U A150G cannot be ordered by “polymerase ribozyme fitness (log ratio)” value: no more than -4.2 for the first, no more than -4.2 for the second.

Going from C87A G140A to G88U G126A, the “polymerase ribozyme fitness (log ratio)” value rises from no more than -4.2 to -2.98.

Going from U90C G94U to C93A A97G C99U U109G, the “polymerase ribozyme fitness (log ratio)” value falls from -3.46 to no more than -4.2.

First: A89U A122U
Second: A91G C99A U135G A138U
The “polymerase ribozyme fitness (log ratio)” value of the first is higher: -0.615 for the first, no more than -4.2 for the second.

G92A C96U A106C G126A and A91U C105U G126U cannot be ordered by “polymerase ribozyme fitness (log ratio)” value: no more than -4.2 for the first, no more than -4.2 for the second.

G92U U104G A107U and U90A G143A cannot be ordered by “polymerase ribozyme fitness (log ratio)” value: no more than -4.2 for the first, no more than -4.2 for the second.

C93A U101C A106U A150G and A91U C131A cannot be ordered by “polymerase ribozyme fitness (log ratio)” value: no more than -4.2 for the first, no more than -4.2 for the second.

G92A U135A and C87G C123U cannot be ordered by “polymerase ribozyme fitness (log ratio)” value: no more than -4.2 for the first, no more than -4.2 for the second.

G88A C105A G133A U135C and G88U G100C U127G cannot be ordered by “polymerase ribozyme fitness (log ratio)” value: no more than -4.2 for the first, no more than -4.2 for the second.

C87U U90G C105U and C87A U135A cannot be ordered by “polymerase ribozyme fitness (log ratio)” value: no more than -4.2 for the first, no more than -4.2 for the second.

A91G C95G A119G and U90G A91G A142G cannot be ordered by “polymerase ribozyme fitness (log ratio)” value: no more than -4.2 for the first, no more than -4.2 for the second.

C87G U148G and U90A C103G A121G cannot be ordered by “polymerase ribozyme fitness (log ratio)” value: no more than -4.2 for the first, no more than -4.2 for the second.

A89U C95G A107G U135C and A91U G128C A138G cannot be ordered by “polymerase ribozyme fitness (log ratio)” value: no more than -4.2 for the first, no more than -4.2 for the second.

Compared with C87U C103G C116U, G92C A122C A150G is lower in “polymerase ribozyme fitness (log ratio)” value: -1.35 for the first, -2.28 for the second.

Going from A89C G92U to G88U C108G C118U A120U, the “polymerase ribozyme fitness (log ratio)” value falls from -1.92 to no more than -4.2.

Going from G88C G141C to A91C A113G, the “polymerase ribozyme fitness (log ratio)” value falls from -3.84 to -4.15.

Going from C93G A142G to G92A G94A A98U C108U C116G U148C, the “polymerase ribozyme fitness (log ratio)” value falls from -3.81 to no more than -4.2.

Going from C87G G141U to G92C U135G, the “polymerase ribozyme fitness (log ratio)” value rises from -3.61 to -3.12.

First: U90C G126U
Second: G88C A147C
The “polymerase ribozyme fitness (log ratio)” value of the first is higher: -3.66 for the first, no more than -4.2 for the second.

First: G88A C93G U139G A147C
Second: G92U A115C
The “polymerase ribozyme fitness (log ratio)” value of the first is lower: no more than -4.2 for the first, -2.23 for the second.

Going from U90G C93G G140A U148C to C87G U90C, the “polymerase ribozyme fitness (log ratio)” value rises from no more than -4.2 to -4.07.

C93A C95U A107G U127C G141C and A91U C103G A110U cannot be ordered by “polymerase ribozyme fitness (log ratio)” value: no more than -4.2 for the first, no more than -4.2 for the second.

Compared with C93G A150C, C87A G126A is higher in “polymerase ribozyme fitness (log ratio)” value: no more than -4.2 for the first, -4.04 for the second.

First: G92A C103A G126A
Second: C87U U127A
The “polymerase ribozyme fitness (log ratio)” value of the first is lower: -3.74 for the first, -3.2 for the second.

C87G C105A and A91U A106C C125A cannot be ordered by “polymerase ribozyme fitness (log ratio)” value: no more than -4.2 for the first, no more than -4.2 for the second.

C87U U90A C118G and C87G G152A cannot be ordered by “polymerase ribozyme fitness (log ratio)” value: no more than -4.2 for the first, no more than -4.2 for the second.

G92C C123U U134C U139A and A89U C95U A107U G133C cannot be ordered by “polymerase ribozyme fitness (log ratio)” value: no more than -4.2 for the first, no more than -4.2 for the second.

C87A U102G and G92A G128A A150G cannot be ordered by “polymerase ribozyme fitness (log ratio)” value: no more than -4.2 for the first, no more than -4.2 for the second.

First: A89G C96U U135G
Second: C87U C116G G152U
The “polymerase ribozyme fitness (log ratio)” value of the first is lower: no more than -4.2 for the first, -3.11 for the second.

C87A U101C A142C and U90C A107U C118G G133C U135G cannot be ordered by “polymerase ribozyme fitness (log ratio)” value: no more than -4.2 for the first, no more than -4.2 for the second.

C93A C125A and C93U A98G G124C are within 0.2 log units of each other in “polymerase ribozyme fitness (log ratio)” value: -1.68 for the first, -1.76 for the second.

Going from G88C G124U G136A to G92U A138G, the “polymerase ribozyme fitness (log ratio)” value rises from no more than -4.2 to -3.48.

A91U C93A A122U G143C and G88U A142C cannot be ordered by “polymerase ribozyme fitness (log ratio)” value: no more than -4.2 for the first, no more than -4.2 for the second.

A91U U135C and C93U A97G G124A C131G U145A cannot be ordered by “polymerase ribozyme fitness (log ratio)” value: no more than -4.2 for the first, no more than -4.2 for the second.

U90A C99G and A91C G94U A106U A147C cannot be ordered by “polymerase ribozyme fitness (log ratio)” value: no more than -4.2 for the first, no more than -4.2 for the second.

A91G C125G G141A and U90C U109G C125G U144C cannot be ordered by “polymerase ribozyme fitness (log ratio)” value: no more than -4.2 for the first, no more than -4.2 for the second.

C93A A137U and A91G C114U U145C cannot be ordered by “polymerase ribozyme fitness (log ratio)” value: no more than -4.2 for the first, no more than -4.2 for the second.

C87G A142U and G92C U102A C108G G124C cannot be ordered by “polymerase ribozyme fitness (log ratio)” value: no more than -4.2 for the first, no more than -4.2 for the second.
